39 molecules from the supplement of paper PMC11880418 can be followed below.

Where a name gives a salt, the structure may show the parent alone. The list shows a part of the results. The data scatter; read single values as rough.
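Also: High-content imaging of ALDEFLUOR-stained cells with Hoechst-labelled nuclei in 384-well plates, triplicate wells, scored as Z-score against 0.1% DMSO vehicle, negative meaning fewer ALDHbr cells.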

The first assay concerns PANC1. Nature of the assay: ALDHbr (CSC) cell proportion score relative to DMSO vehicle (ratio to DMSO); breast (SUM159) / gastric (MKN45) / pancreatic (PANC1) / colon cancer lines; ALDHbr cells have high ALDH activity and are rich in cancer stem cells (CSC); higher = more CSC (ALDHbr) cells remaining. The conditions noted are these: 10 µM; 72 h.
Take `C[C@]12CC[C@@H]3c4ccc(O)cc4CC[C@H]3[C@@H]1C[C@@H](O)[C@@H]2O` [Estriol]: the ALDHbr was found to be 0.802.

For `CC(=O)c1ccc(S(=O)(=O)NC(=O)NC2CCCCC2)cc1` [Acetohexamide], the ALDHbr was determined as 0.858.

`CC(=O)c1ccc2c(c1)N(CCCN1CCC(CCO)CC1)c1ccccc1S2` [Piperacetazine]: the ALDHbr turned out to be 0.9.

With `CC(=O)CC(c1ccc([N+](=O)[O-])cc1)c1c(O)c2ccccc2oc1=O` (stereo not drawn) [Acenocoumarol], the ALDHbr is 0.9.

In the case of `CCCC(=O)Nc1ccc(OCC(O)CNC(C)C)c(C(C)=O)c1` (stereo not drawn) [Acebutolol hydrochloride], the ALDHbr was 0.954.

Consider `CCC1(C)CC(=O)NC1=O` (stereo not drawn) [Ethosuximide], for which the ALDHbr came to 0.784.

`O=S(=O)(O)c1cc(O)ccc1O` [Ethamsylate]: the ALDHbr is 0.989.

With `NC(=O)OCC(O)COc1ccc(Cl)cc1` (stereo not drawn) [Chlorphensin carbamate], the ALDHbr came to 0.924.

For the molecule `Nc1nc(N)c2nc(-c3ccccc3)c(N)nc2n1` [Triamterene], the ALDHbr was determined as 0.73.

On to `Cc1c(F)c(N2CCNC(C)C2)cc2c1c(=O)c(C(=O)O)cn2C1CC1` (stereo not drawn) [Grepafloxacin], for which the ALDHbr was 0.833.

Consider `CCN1CCCC1CNC(=O)c1cc(S(=O)(=O)CC)c(N)cc1OC` (stereo not drawn) [Amisulpride], for which the ALDHbr is 0.98.

On to `O=C(O)c1cc(=O)c2c(OCC(O)COc3cccc4oc(C(=O)O)cc(=O)c34)cccc2o1` [Cromolyn disodium salt], for which the ALDHbr is 1.

For the molecule `COc1ccc(-c2cc(=O)c3c(O)cc(O[C@@H]4O[C@H](CO[C@@H]5O[C@@H](C)[C@H](O)[C@@H](O)[C@H]5O)[C@@H](O)[C@H](O)[C@H]4O)cc3o2)cc1O` [Diosmin], the ALDHbr came out at 1.09.

Consider `CC(=O)Nc1c(I)c(C(=O)N[C@H]2C(O)O[C@H](CO)[C@@H](O)[C@@H]2O)c(I)c(N(C)C(C)=O)c1I` (stereo partly drawn) [Metrizamide], for which the ALDHbr amounted to 1.01.

Take `C#CCN(C)Cc1ccccc1` [Pargyline hydrochloride]: the ALDHbr turned out to be 0.831.

For the molecule `CN(C)CCc1c[nH]c2ccc(Cn3cncn3)cc12` [Rizatriptan benzoate], the ALDHbr turned out to be 0.958.

Regarding `CC(=O)Nc1nnc(S(N)(=O)=O)s1` [Acetazolamide], the ALDHbr was found to be 0.868.

Regarding `O=C1CCc2ccc(OCCCCN3CCN(c4cccc(Cl)c4Cl)CC3)cc2N1` [Aripiprazole], the ALDHbr was found to be 0.603.

Consider `CCCCCOC(=O)Nc1nc(=O)n([C@@H]2O[C@H](C)[C@@H](O)[C@H]2O)cc1F` [Capecitabine], for which the ALDHbr worked out at 0.878.

As for `Brc1c(NC2=NCCN2)ccc2nccnc12` [Brimonidine L-Tartrate], the ALDHbr stood at 0.955.

For `CN(C)CCC=C1c2ccccc2C=Cc2ccccc21` [Cyclobenzaprine hydrochloride], the ALDHbr is 0.972.

With `Nc1ccc(S(=O)(=O)c2ccc(N)cc2)cc1` [Dapsone], the ALDHbr was 0.894.

Regarding `Cc1cn([C@H]2C=C[C@@H](CO)O2)c(=O)[nH]c1=O` [Stavudine], the ALDHbr was determined as 0.942.

In the case of `C[C@]12C[C@H](O)[C@H]3[C@@H](CCC4=CC(=O)CC[C@@]43C)[C@@H]1CC[C@@H]2C(=O)CO` [Corticosterone], the ALDHbr was 0.711.

As for `OC(CCN1CCCCC1)(c1ccccc1)C1CC2C=CC1C2` (stereo not drawn) [Biperiden hydrochloride], the ALDHbr stood at 1.03.

`CCCCCCCCNC(C)C(O)c1ccc(SC(C)C)cc1` (stereo not drawn) [Suloctidil]: the ALDHbr worked out at 1.34.

Take `CN1CCN(C2=Nc3cc(Cl)ccc3Nc3ccccc32)CC1` [Clozapine]: the ALDHbr was determined as 0.791.

With `Cc1cc(-c2ccccc2)nnc1NCCN1CCOCC1` [Minaprine dihydrochloride], the ALDHbr worked out at 0.863.

For `CN(C)CCC=C1c2ccccc2CCc2ccccc21` [Amitryptiline hydrochloride], the ALDHbr was 1.22.

As for `NS(=O)(=O)c1cc(C(=O)O)c(NCc2ccco2)cc1Cl` [Furosemide], the ALDHbr stood at 0.946.

For the molecule `CN(C)CCOc1ccc(/C(=C(/CCCl)c2ccccc2)c2ccccc2)cc1` [Toremifene], the ALDHbr is 0.916.

As for `Cc1nc2n(c(=O)c1CCN1CCC(c3noc4cc(F)ccc34)CC1)CCCC2O` (stereo not drawn) [Paliperidone], the ALDHbr was 0.864.

With `Nc1nc2c(ncn2COC(CO)CO)c(=O)[nH]1` [Ganciclovir], the ALDHbr was 0.948.

Consider `O=C(O)c1cn(C2CC2)c2cc(N3CCNCC3)c(F)cc2c1=O` [Ciprofloxacin hydrochloride monohydrate], for which the ALDHbr stood at 0.86.

As for `Cc1noc(NS(=O)(=O)c2ccc(N)cc2)c1C` [Sulfisoxazole], the ALDHbr is 0.908.

For `CC[N+](CC)(CC)CCC(O)(c1ccccc1)C1CCCCC1` (stereo not drawn) [Tridihexethyl chloride], the ALDHbr was 0.879.

With `CCSc1ccc2c(c1)N(CCCN1CCN(C)CC1)c1ccccc1S2` [Thiethylperazine dimalate], the ALDHbr stood at 0.822.

Regarding `N[C@@H]1CCCCN(c2c(F)cc3c(=O)c(C(=O)O)cn(C4CC4)c3c2Cl)C1` [Besifloxacin hydrochloride], the ALDHbr turned out to be 0.88.

For `Nc1ccccc1S(N)(=O)=O` [2-Aminobenzenesulfonamide], the ALDHbr is 0.921.

A further assay relates to SUM159. The description is as above. The conditions noted are these: 10 µM; 72 h.
Take `C[C@]12CC[C@@H]3c4ccc(O)cc4CC[C@H]3[C@@H]1C[C@@H](O)[C@@H]2O` [Estriol]: the ALDHbr came to 1.05.

With `CC(=O)c1ccc(S(=O)(=O)NC(=O)NC2CCCCC2)cc1` [Acetohexamide], the ALDHbr came out at 1.13.

Take `CC(=O)c1ccc2c(c1)N(CCCN1CCC(CCO)CC1)c1ccccc1S2` [Piperacetazine]: the ALDHbr came to 0.688.

As to `CC(=O)CC(c1ccc([N+](=O)[O-])cc1)c1c(O)c2ccccc2oc1=O` (stereo not drawn) [Acenocoumarol], the ALDHbr amounted to 1.1.

`CCCC(=O)Nc1ccc(OCC(O)CNC(C)C)c(C(C)=O)c1` (stereo not drawn) [Acebutolol hydrochloride]: the ALDHbr is 1.4.

`CCC1(C)CC(=O)NC1=O` (stereo not drawn) [Ethosuximide]: the ALDHbr amounted to 1.06.

As to `O=S(=O)(O)c1cc(O)ccc1O` [Ethamsylate], the ALDHbr came to 0.902.

`NC(=O)OCC(O)COc1ccc(Cl)cc1` (stereo not drawn) [Chlorphensin carbamate]: the ALDHbr was determined as 1.04.

On to `Nc1nc(N)c2nc(-c3ccccc3)c(N)nc2n1` [Triamterene], for which the ALDHbr stood at 1.48.

Turning to `Cc1c(F)c(N2CCNC(C)C2)cc2c1c(=O)c(C(=O)O)cn2C1CC1` (stereo not drawn) [Grepafloxacin], the ALDHbr is 0.827.

Regarding `CCN1CCCC1CNC(=O)c1cc(S(=O)(=O)CC)c(N)cc1OC` (stereo not drawn) [Amisulpride], the ALDHbr was determined as 0.925.

On to `O=C(O)c1cc(=O)c2c(OCC(O)COc3cccc4oc(C(=O)O)cc(=O)c34)cccc2o1` [Cromolyn disodium salt], for which the ALDHbr came to 0.945.

As for `COc1ccc(-c2cc(=O)c3c(O)cc(O[C@@H]4O[C@H](CO[C@@H]5O[C@@H](C)[C@H](O)[C@@H](O)[C@H]5O)[C@@H](O)[C@H](O)[C@H]4O)cc3o2)cc1O` [Diosmin], the ALDHbr was found to be 0.978.

Take `CC(=O)Nc1c(I)c(C(=O)N[C@H]2C(O)O[C@H](CO)[C@@H](O)[C@@H]2O)c(I)c(N(C)C(C)=O)c1I` (stereo partly drawn) [Metrizamide]: the ALDHbr was 0.933.

In the case of `C#CCN(C)Cc1ccccc1` [Pargyline hydrochloride], the ALDHbr is 0.92.

Consider `CN(C)CCc1c[nH]c2ccc(Cn3cncn3)cc12` [Rizatriptan benzoate], for which the ALDHbr stood at 0.698.

In the case of `CC(=O)Nc1nnc(S(N)(=O)=O)s1` [Acetazolamide], the ALDHbr is 1.09.

On to `O=C1CCc2ccc(OCCCCN3CCN(c4cccc(Cl)c4Cl)CC3)cc2N1` [Aripiprazole], for which the ALDHbr came to 0.783.

Turning to `CCCCCOC(=O)Nc1nc(=O)n([C@@H]2O[C@H](C)[C@@H](O)[C@H]2O)cc1F` [Capecitabine], the ALDHbr is 0.946.

Take `Brc1c(NC2=NCCN2)ccc2nccnc12` [Brimonidine L-Tartrate]: the ALDHbr was 0.893.

Consider `CN(C)CCC=C1c2ccccc2C=Cc2ccccc21` [Cyclobenzaprine hydrochloride], for which the ALDHbr worked out at 0.653.

Regarding `Nc1ccc(S(=O)(=O)c2ccc(N)cc2)cc1` [Dapsone], the ALDHbr was determined as 1.23.

As to `Cc1cn([C@H]2C=C[C@@H](CO)O2)c(=O)[nH]c1=O` [Stavudine], the ALDHbr came out at 1.97.

`C[C@]12C[C@H](O)[C@H]3[C@@H](CCC4=CC(=O)CC[C@@]43C)[C@@H]1CC[C@@H]2C(=O)CO` [Corticosterone]: the ALDHbr was 0.768.

For `OC(CCN1CCCCC1)(c1ccccc1)C1CC2C=CC1C2` (stereo not drawn) [Biperiden hydrochloride], the ALDHbr came to 0.913.

Turning to `CCCCCCCCNC(C)C(O)c1ccc(SC(C)C)cc1` (stereo not drawn) [Suloctidil], the ALDHbr is 0.678.

As to `CN1CCN(C2=Nc3cc(Cl)ccc3Nc3ccccc32)CC1` [Clozapine], the ALDHbr is 0.565.

With `Cc1cc(-c2ccccc2)nnc1NCCN1CCOCC1` [Minaprine dihydrochloride], the ALDHbr came to 0.956.

In the case of `CN(C)CCC=C1c2ccccc2CCc2ccccc21` [Amitryptiline hydrochloride], the ALDHbr turned out to be 0.767.

As for `NS(=O)(=O)c1cc(C(=O)O)c(NCc2ccco2)cc1Cl` [Furosemide], the ALDHbr turned out to be 0.984.

For the molecule `CN(C)CCOc1ccc(/C(=C(/CCCl)c2ccccc2)c2ccccc2)cc1` [Toremifene], the ALDHbr is 0.615.

As to `Cc1nc2n(c(=O)c1CCN1CCC(c3noc4cc(F)ccc34)CC1)CCCC2O` (stereo not drawn) [Paliperidone], the ALDHbr came out at 1.11.

Consider `Nc1nc2c(ncn2COC(CO)CO)c(=O)[nH]1` [Ganciclovir], for which the ALDHbr was found to be 1.04.

Consider `O=C(O)c1cn(C2CC2)c2cc(N3CCNCC3)c(F)cc2c1=O` [Ciprofloxacin hydrochloride monohydrate], for which the ALDHbr was 1.04.

Regarding `Cc1noc(NS(=O)(=O)c2ccc(N)cc2)c1C` [Sulfisoxazole], the ALDHbr worked out at 1.01.

Regarding `CC[N+](CC)(CC)CCC(O)(c1ccccc1)C1CCCCC1` (stereo not drawn) [Tridihexethyl chloride], the ALDHbr was found to be 1.17.

For `CCSc1ccc2c(c1)N(CCCN1CCN(C)CC1)c1ccccc1S2` [Thiethylperazine dimalate], the ALDHbr was 0.286.

As to `N[C@@H]1CCCCN(c2c(F)cc3c(=O)c(C(=O)O)cn(C4CC4)c3c2Cl)C1` [Besifloxacin hydrochloride], the ALDHbr turned out to be 0.904.

`Nc1ccccc1S(N)(=O)=O` [2-Aminobenzenesulfonamide]: the ALDHbr is 1.1.
